Test results taken from the BET-seq Pho4 binding data (Le et al. 2018).
This is one part of the list. The energies were worked out here from pooled read counts, against the library average; single values are noisy.

What follows are sequences tested against T1, Pho4 (S. cerevisiae) (UniProt P07270) (assay: relative binding free energy (BET-seq); higher = weaker binding). Conditions: reference: library average.
T1 sequence: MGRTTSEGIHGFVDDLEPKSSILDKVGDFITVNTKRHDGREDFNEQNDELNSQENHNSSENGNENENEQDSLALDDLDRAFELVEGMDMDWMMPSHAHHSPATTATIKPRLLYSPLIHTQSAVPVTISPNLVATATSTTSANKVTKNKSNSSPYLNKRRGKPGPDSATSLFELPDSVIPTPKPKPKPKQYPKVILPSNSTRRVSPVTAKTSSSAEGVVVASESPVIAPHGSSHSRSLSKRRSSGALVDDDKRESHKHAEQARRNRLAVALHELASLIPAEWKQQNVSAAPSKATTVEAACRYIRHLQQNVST

Row | Sequence | relative binding free energy [kcal/mol]
1 | TTTTACACGTGAGTAA | 0.32
2 | ACTGTCACGTGTCGTT | 0.21
3 | ATGAGCACGTGGGTAT | -0.31
4 | CGGTTCACGTGGGGTG | 0.03
5 | GGATGCACGTGTGGTC | 0.12
6 | TGGACCACGTGGGTAT | -0.17
7 | GCGGGCACGTGCGTAG | -0.16
8 | ATTGTCACGTGATTCG | 0.24
9 | ATGTACACGTGTAGCT | 0.12
10 | AGGGACACGTGTCAGG | -0.01
11 | GTGTGCACGTGGGTAT | -0.06
12 | AGGATCACGTGGTGTG | 0.11
13 | TACGTCACGTGTGTCT | 0.15
14 | GGGGGCACGTGTATGA | -0.13
15 | TTCTGCACGTGTATTA | -0.05
16 | AGGTACACGTGGGGTT | 0.01
17 | TTGCTCACGTGGGTTG | 0.18
18 | TTAGTCACGTGTCTTT | 0
19 | GGATCCACGTGCGTGG | 0.03
20 | AAGGGCACGTGTGCTG | -0.07
21 | TTATTCACGTGTTTTA | 0.18
22 | CTGTACACGTGTATGG | -0.11
23 | TGGAGCACGTGACCGT | 0.15

Row | Sequence | relative binding free energy [kcal/mol]
24 | CGTAACACGTGCGTGG | -0.13
25 | TCGTACACGTGGGGGC | -0.14
26 | AAGGTCACGTGCAGGT | -0.03
27 | GGGAGCACGTGATAGT | 0.12
28 | CATGGCACGTGGGCGT | -0.36
29 | GTTAACACGTGGCGTT | -0.03
30 | TTGTGCACGTGGCGGA | -0.08
31 | GTAGTCACGTGATTGG | 0.22
32 | GATATCACGTGGTGAT | 0.24
33 | TGCATCACGTGAATGG | 0.22
34 | TTAGTCACGTGAATAG | 0.16
35 | TCTGTCACGTGACGGG | 0.15
36 | TCGGGCACGTGGCGTC | -0.13
37 | ATATGCACGTGGTTCG | -0.13
38 | GAGGTCACGTGGAGTG | 0.27
39 | TGCTGCACGTGGTGCG | -0.19
40 | GTAGTCACGTGTATCG | 0.02
41 | GATATCACGTGTTAGT | 0.24
42 | TAAGCCACGTGGGGGA | -0.17
43 | ATTAGCACGTGGGTAT | -0.2
44 | TTCGGCACGTGTATAG | 0
45 | AATGACACGTGTAGTA | 0.11
46 | TGGGGCACGTGGGGGG | -0.14

Row | Sequence | relative binding free energy [kcal/mol]
47 | TGGTTCACGTGATACT | 0.32
48 | TATTGCACGTGTTTTG | 0.01
49 | GTTGACACGTGTTAGC | 0.17
50 | TGGCTCACGTGTAGGC | 0.31
51 | TATGACACGTGCTGGT | -0.1
52 | CTTTGCACGTGGGGGC | -0.21
53 | AATTTCACGTGGCTTG | 0.33
54 | TAGGTCACGTGTAATG | 0.14
55 | GTCTACACGTGTGAGT | 0.28
56 | GGAATCACGTGTGATG | 0.18
57 | CGGGTCACGTGGTGTA | 0.04
58 | ATTACCACGTGGGGTA | -0.26
59 | GAAGGCACGTGGTTGG | -0.02
60 | ACTGACACGTGGGGTG | -0.14
61 | ATTAGCACGTGTCGGA | 0.03
62 | GGTGTCACGTGGCGTA | 0.02
63 | TAGCGCACGTGAGGGG | 0.11
64 | GTCGGCACGTGAGGAG | 0.1
65 | GGTGCCACGTGAATAT | 0.29
66 | CGCGCCACGTGTGGTG | -0.02
67 | GGTCCCACGTGTGTGT | -0.12
68 | ACGTACACGTGATGTT | 0.13
69 | ATTCGCACGTGGTGGA | -0.02

Row | Sequence | relative binding free energy [kcal/mol]
70 | CAGTTCACGTGGTGAT | 0.12
71 | TTAGACACGTGCTGGA | -0.05
72 | GTGTTCACGTGGATGT | 0.31
73 | GTGCACACGTGTTGTT | 0.1
74 | AGAATCACGTGTACGT | 0.32
75 | TCTAGCACGTGTGTGA | -0.13
76 | AAAAACACGTGTTGTG | 0.09
77 | GTGGACACGTGAGTCT | 0.26
78 | TTGTTCACGTGGGAGC | 0.2
79 | TGAATCACGTGGAGCT | 0.17
80 | ATAGTCACGTGTGGCA | 0.12
81 | TTTTGCACGTGAGGCT | 0.26
82 | AACGACACGTGTTGGT | 0.08
83 | GAGTTCACGTGCGGGT | 0.23
84 | CGAGTCACGTGGGTTC | 0.06
85 | AGGCGCACGTGGGCTT | -0.29
86 | TTTTACACGTGGTAGT | 0.06
87 | AGTAGCACGTGGTGTC | -0.24
88 | ATCGGCACGTGTTAGA | 0.04
89 | CAGGTCACGTGTTGGT | 0.16
90 | CCTTTCACGTGATGTG | 0.32
91 | ACCAGCACGTGGGTGT | -0.1
92 | ATGCGCACGTGTTAGA | -0.07

Row | Sequence | relative binding free energy [kcal/mol]
93 | TGCAACACGTGGATGG | -0.03
94 | ACGTGCACGTGGCGTG | -0.33
95 | TGGGGCACGTGTACCT | -0.01
96 | AGGGTCACGTGCTATA | 0.13
97 | AGGTTCACGTGGTTTC | 0.27
98 | TTGAGCACGTGAATGA | 0.12
99 | AGTTTCACGTGGGTGG | 0.15
100 | TTGTACACGTGGGAAT | 0.03
101 | TGCGGCACGTGGAGGT | -0.1
102 | ATGATCACGTGGTAAT | 0.06
103 | TTTATCACGTGATCTT | 0.19
104 | AAGATCACGTGGTGGA | 0.1
105 | GGGGTCACGTGGGTGC | 0.1
106 | TTGCGCACGTGTGAGG | -0.05
107 | TGGGTCACGTGCTATG | 0.1
108 | GGTGGCACGTGGATGG | 0.04
109 | TAGTACACGTGGTTTG | 0.08
110 | AACGGCACGTGGTAGA | -0.07
111 | CGGATCACGTGCAGGG | 0.09
112 | ATGGTCACGTGGGAAC | 0.03
113 | CTGTGCACGTGGTGGC | -0.11
114 | TATTTCACGTGTATAG | 0.15
115 | GGTTACACGTGGTACG | -0.03
